PMC5862564
These are yes or no findings as the source states them, for the method shown. Binding seen in cells or lysates may run through a third protein. Some binding calls cover weakened binding; strength is not graded here. One block for each binder: values may come before it.

Biological target: SKAP2N2 (SRC Kinase Adaptor Phosphoprotein 2 with Gaussia princeps luciferase fragment 2 at its N-terminal end) (human) (UniProt O75563)
Test: split reporter; Gaussia princeps luciferase complementation assay (GPCA) in HEK293T cells; SKAP2N2 or its mutants with N1-fused partners; cells non-stimulated or activated with 5 µM A23187 for 2 h 15 min; normalized luminescence ratio (NLR) above the threshold of the negative controls

binding: binds
B1: FYB P370A mutant (protein, UniProt O15117-3 1-839)
chain: MDGKADVKSLMAKYNTGGNPTEDVSVNSRPFRVTGPNSSSGIQARKNLFNNQGNASPPAGPSNVPKFGSPKPPVAVKPSSEEKPDKEPKPPFLKPTGAGQRFGTPASLTTRDPEAKVGFLKPVGPKPINLPKEDSKPTFPWPPGNKPSLHSVNQDHDLKPLGPKSGPTPPTSENEQKQAFPKLTGVKGKFMSASQDLEPKPLFPKPAFGQKPPLSTENSHEDESPMKNVSSSKGSPAPLGVRSKSGPLKPAREDSENKDHAGEISSLPFPGVVLKPAASRGGPGLSKNGEEKKEDRKIDAAKNTFQSKINQEELASGTPPARFPKAPSKLTVGGPWGQSQEKEKGDKNSATPKQKPLPPLFTLGPPPPKANRPPNVDLTKFHKTSSGNSTSKGQTSYSTTSLPPPPPSHPASQPPLPASHPSQPPVPSLPPRNIKPPFDLKSPVNEDNQDGVTHSDGAGNLDEEQDSEGETYEDIEASKEREKKREKEEKKRLELEKKEQKEKEKKEQEIKKKFKLTGPIQVIHLAKACCDVKGGKNELSFKQGEQIEIIRITDNPEGKWLGRTARGSYGYIKTTAVEIDYDSLKLKKDSLGAPSRPIEDDQEVYDDVAEQDDISSHSQSGSGGIFPPPPDDDIYDGIEEEDADDGSTLQVQEKSNTWSWGILKMLKGKDDRKKSIREKPKVSDSDNNEGSSFPAPPKQLDMGDEVYDDVDTSDFPVSSAEMSQGTNVGKAKTEEKDLKKLKKQEKEEKDFRKKFKYDGEIRVLYSTKVTTSITSKKWGTRDLQVKPGESLEVIQTTDDTKVLCRNEEGKYGYVLRSYLADNDGEIYDDIADGCIYDND

binding: binds
B2: FAM102A P149L mutant (protein, UniProt Q5T9C2-3 1-242)
chain: MFLLSGDPCFKTPPSTAKSISIPGQDSSLQLTCKGGGTSSGGSSTNSLTGSRPPKARPTILSSGLPEEPDQNLSSPEEVFHSGHSRNSSYASQQSKISGYSTEHSRSSSLSDLTHRRNTSTSSSASGGLGMTVEGPEGSEREHRPPEKLPRPPRPLHLSDRSFRRKKDSVESHPTWVDDTRIDADAIVEKIVQSQDFTDGSNTEDSNLRLFVSRDGSATLSGIQLATRVSSGVYEPVVIESH
